# Data: PMC4336329 (PLoS ONE, 2015)
# About 2,200 (0.71%) of roughly 310,000 compounds showed an effect of 50% or more. The effect is printed as a negative number. The list shows a part of the results.
# Biological target: human ether-à-go-go-related gene (hERG) potassium channel (human, UniProt Q12809)
# Test: primary screen, population patch clamp on CHO cells stably expressing hERG
# human ether-à-go-go-related gene (hERG) potassium channel, sequence (Q12809 whole entry, looked up): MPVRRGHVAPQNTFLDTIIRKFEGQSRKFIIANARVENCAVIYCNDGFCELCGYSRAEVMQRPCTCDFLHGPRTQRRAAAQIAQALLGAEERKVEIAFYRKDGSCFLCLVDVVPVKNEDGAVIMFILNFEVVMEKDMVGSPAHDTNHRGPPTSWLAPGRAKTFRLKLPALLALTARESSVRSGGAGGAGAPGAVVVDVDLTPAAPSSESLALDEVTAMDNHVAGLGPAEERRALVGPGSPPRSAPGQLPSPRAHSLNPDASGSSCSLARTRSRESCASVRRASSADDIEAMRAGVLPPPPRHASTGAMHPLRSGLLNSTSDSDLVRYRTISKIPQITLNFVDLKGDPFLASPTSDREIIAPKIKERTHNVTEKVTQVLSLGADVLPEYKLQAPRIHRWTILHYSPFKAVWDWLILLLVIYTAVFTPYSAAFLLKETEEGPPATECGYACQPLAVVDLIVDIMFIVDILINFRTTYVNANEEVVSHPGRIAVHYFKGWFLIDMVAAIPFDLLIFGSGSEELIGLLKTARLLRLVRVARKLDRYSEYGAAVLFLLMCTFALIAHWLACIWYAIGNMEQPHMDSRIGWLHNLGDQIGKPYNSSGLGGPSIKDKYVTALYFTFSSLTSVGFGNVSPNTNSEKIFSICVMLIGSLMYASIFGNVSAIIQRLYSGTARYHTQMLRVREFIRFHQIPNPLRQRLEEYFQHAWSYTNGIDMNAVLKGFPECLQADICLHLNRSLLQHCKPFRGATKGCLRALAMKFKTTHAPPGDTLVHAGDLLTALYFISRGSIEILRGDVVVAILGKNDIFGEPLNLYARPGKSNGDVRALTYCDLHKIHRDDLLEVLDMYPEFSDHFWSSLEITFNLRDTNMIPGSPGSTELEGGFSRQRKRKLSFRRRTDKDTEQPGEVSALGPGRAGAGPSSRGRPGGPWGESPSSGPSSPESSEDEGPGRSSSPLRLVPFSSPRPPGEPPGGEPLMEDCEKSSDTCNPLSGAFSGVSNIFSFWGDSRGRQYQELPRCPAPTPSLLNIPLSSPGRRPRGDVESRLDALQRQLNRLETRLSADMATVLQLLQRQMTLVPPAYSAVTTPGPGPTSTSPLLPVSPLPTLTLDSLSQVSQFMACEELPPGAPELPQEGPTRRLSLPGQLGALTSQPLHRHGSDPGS
row,Compound,"hERG current change (%, negative = inhibition) at 1uM"
1,CC1(NC(=O)CCc2nc3sc4c(c3c(=O)[nH]2)CCCC4)CCS(=O)(=O)C1 (stereo not drawn),-6.51%
2,O=C(O)C(=O)/C(=C\c1ccccc1)c1ccc2ccccc2n1,21.3%
3,COc1ccc(-c2noc(-c3ccccc3C(=O)Nc3cccnc3)n2)cc1,-6.63%
4,Cc1cnc(NC(=O)CN(C)S(=O)(=O)c2ccc(Cl)cc2)s1,6.91%
5,COc1ccc2nc(NC(=O)CNS(=O)(=O)c3cccs3)sc2c1,-8.4%
6,Cc1ccc(CN2CCN(CC(=O)O)C2=O)cc1,24%
7,COCCn1c(SCC(=O)N2CCc3ccccc3C2)nc2ccccc2c1=O,2.16%
8,COc1ccc([C@@H]2OC2(C(N)=O)C(N)=O)cc1,11.4%
9,C/C(CC(=O)Nc1ccc([N+](=O)[O-])cc1)=N/NC(=O)C1CC12CCC2 (stereo not drawn),4.85%
10,CC(C)N1C(=O)CCC1C(=O)N1CCC(Cc2ccccc2)CC1 (stereo not drawn),-1.78%
11,C#CCN1C(=O)C2(C(C#N)=C(N)OC(C)=C2C(=O)OCc2ccccc2)c2ccccc21 (stereo not drawn),-1.85%
12,CCN(CC)C(=O)c1ccc(NC(=O)c2cccc(S(=O)(=O)N3CCN(C)CC3)c2)cc1,12.7%
13,CCn1c(=O)c(=O)[nH]c2cc(C(=O)NCc3ccc(F)cc3)ccc21,4.65%
14,CCN(CC)c1ccc(/C=N/Nc2cccc(C)c2)c(O)c1,8.87%
15,O=C(Nc1ccc(Br)c(C(F)(F)F)c1)c1ccc(C(F)(F)F)cc1,9.78%
16,CC(CC(=O)N1CCN(c2ccccc2)CC1)S(=O)(=O)c1ccc2c(c1)NC(=O)CO2 (stereo not drawn),-5.52%
17,CCOC(=O)c1sc(NC(=O)c2cc3ccccc3o2)nc1C,6.87%
18,O=C(NCCN1CCOCC1)C(=O)NCC1OCCCN1S(=O)(=O)c1ccc(F)cc1 (stereo not drawn),16.6%
19,Nc1nc(NC(=O)c2ccccc2)nn1-c1ccccc1,3.91%
20,CCOC(=O)C1CCN(C(=O)C2CCN(S(=O)(=O)c3ccc4c(c3)CC(C)N4C(C)=O)CC2)CC1 (stereo not drawn),15.5%
21,CCOC(=O)N1CCN(C(=O)/C(=C/c2cccs2)NC(=O)c2cccs2)CC1,-6.55%
22,CC(C)C(c1nnnn1Cc1cccs1)N1CCN(c2ccccc2)CC1 (stereo not drawn),19.7%
23,Cc1nnc(NC(=O)CSc2nnc(-c3ccccc3)n2C)s1,16.8%
24,CC(C)CN(C(=O)COC(=O)C1CC1)c1c(N)n(Cc2ccccc2)c(=O)[nH]c1=O,18%
